This note sets out measurements from PubChem BioAssay AID602313 (National Center for Advancing Translational Sciences (NCATS), 2012).

About 760 (0.19%) of roughly 390,000 compounds were called active. Not shown: some 3% with an inconclusive outcome. Calls follow the shape of the dose curve; as a rule, active = well fitted inhibition curve with a large enough effect; inconclusive = small, poorly fitted or top-dose-only effect; inactive = flat fitted curve, though single readings scatter. Only a part is listed here, and it is no random draw.
Potency is read from the fitted curve at half-maximal effect.

The assay is described as follows: qHTS for Inhibitors of Vif-A3F Interactions: qHTS. Also: nearly all actives have a fitted effect of over 65% in size. As to activity, negative = active: % of control where 0% means no effect. The conditions noted are these: HeLa A3F-eYFP + Vif (tagged APOBEC3F with the HIV-1 protein that degrades it), YFP fluorescence increase; series mostly up to 46.1 µM; activity, negative = active: at the top concentration. In a few lines:
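Fluorescence increase (Ex 488/Em 500-530) after overnight compound treatment at 37 deg C flags inhibition of Vif-driven A3F-eYFP loss in stable HeLa A3F-eYFP/Vif cells seeded overnight beforehand.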
A general note: Quantitative high-throughput screening tests each substance at several concentrations.
In the case of `Cc1cc(Br)ccc1SCC(=O)OCC(O)=C(C#N)c1nc2ccccc2[nH]1`, the “activity, negative = active” value was inactive: -14.9%. `COc1cccc(NC(=O)C2CCCN(S(=O)(=O)c3cccc4nonc34)C2)c1` (centres undefined): the “activity, negative = active” value was inactive: -19.7%. Turning to `CN(CCCNC(=O)c1cc2c(Cl)nc3ccccc3c2s1)Cc1ccccc1`, the “activity, negative = active” value was inactive: -15.5%.

Consider `Cc1ccc(C)c(NC(=O)C2CCCN(S(=O)(=O)c3c(C)noc3/C=C/N(C)C)C2)c1` (centres undefined), for which the “activity, negative = active” value was inactive: 4.44%. With `CCN1CCN(c2cc(C)c3cc(NC(=O)c4cc(OC)cc(OC)c4)ccc3n2)CC1`, the “activity, negative = active” value was inactive: -19.3%. For `CCOC(=O)/C=c1\s/c(=C\c2ccc3cc(OC)ccc3c2)c(=O)n1CC(=O)NCc1ccc2c(c1)OCO2`, the “activity, negative = active” value was inactive: -3.27%. Turning to `Cc1ccc(CCNC(=O)CCn2c(=O)c3cccn3c3ccc(F)cc32)cc1`, the “activity, negative = active” value is inactive: -8.92%.

In the case of `CC(=O)c1cccc(NC(=O)C2CCCN(S(=O)(=O)c3cccc4nonc34)C2)c1` (centres undefined), the Potency is active: 31.6 µM.

With `CNc1nc(Cl)c(SC)c(N2CCOCC2)n1`, the “activity, negative = active” value is inactive: 30.5%.

As for `O=C(C1=C[C@@H](c2ccc(C(F)(F)F)cc2)C[C@@H](OCc2ccc(CO)cc2)O1)N1CCN(Cc2ccccc2)CC1`, the “activity, negative = active” value is inactive: -0.412%.

For `CC1CCCN(CCCNC(=O)c2cc3c(Cl)nc4ccccc4c3s2)C1` (centres undefined), the “activity, negative = active” value was inactive: -16.4%.

For the molecule `CCCNC(=O)c1ccc2c(c1)nc(C)n2-c1cccc(C)c1`, the “activity, negative = active” value was inactive: -3.21%. For the molecule `Cc1ccccc1N1C(=O)c2cccc3c(N(C)CCO)ccc(c23)C1=O`, the Potency was active: 12.6 µM. Turning to `CC1=NNC(=O)c2ccccc2O1`, the “activity, negative = active” value is inactive: 34.4%.

Take `CCCCCCN1C[C@@H](O)[C@H](n2cc(COC(=O)c3ccccc3)nn2)C[C@@H]1c1ccc(Cl)cc1`: the “activity, negative = active” value was inactive: -12.8%. In the case of `Cc1nc(-c2ccc(Cl)cc2)sc1C(=O)NNC(=O)C(C)C`, the “activity, negative = active” value is inactive: 31.7%.

Consider `CCCN(CCC)CCCNC(=O)c1cc2c(-c3ccc(OC)c(OC)c3)nn(C)c2s1`, for which the “activity, negative = active” value was inactive: 2.24%. As to `Cc1cc(Br)ccc1SCC(=O)OC/C(O)=C(\C#N)c1nc2ccccc2[nH]1`, the Potency is active: 25.1 µM. For the molecule `OCC1OC(n2cnc3c(NCc4ccco4)ncnc32)C(O)C1O` (centres undefined), the “activity, negative = active” value was inactive: 0.349%.

For `CCCSc1ccc([C@@H]2[C@@H]3C(=O)N(CC)C(=O)[C@@H]3[C@]3(C(=O)OC)CCCCN23)cc1`, the “activity, negative = active” value was inactive: -5.97%. As to `CCN1C(=O)[C@H]2[C@@H](c3ccc(-c4ccc(F)cc4)c(OC)c3)N3CCCC[C@@]3(C(=O)OC)[C@H]2C1=O`, the “activity, negative = active” value is inactive: -13.8%. For the molecule `CCN1CCCC1CNc1ccc(S(C)(=O)=O)cc1[N+](=O)[O-]` (centres undefined), the “activity, negative = active” value was inactive: 19.8%.

`C=CCc1ccccc1OCC(O)CN1CCN(Cc2ccc3c(c2)OCO3)CC1` (centres undefined): the “activity, negative = active” value is inactive: 6%. Same read-out and setting: in the case of `CC(C)[C@@H](N)C(=O)NCC1CCC(C(=O)N[C@@H](Cc2ccccc2)C(=O)O)CC1` (some centres undefined) it was inactive: 9.83%; in that of `COc1cc(NC(=O)c2cccc3c2C(=O)N(C2CCCCC2)C3)cc(OC)c1OC`, inactive: 4.78%. Take `COc1ccc(-c2csc(/C(C#N)=C(\O)CSc3nccn3C)n2)cc1OC`: the “activity, negative = active” value is inactive: 2.68%. In the case of `CC1=NOC(=O)/C1=C/c1ccc2c(c1)OCO2`, the “activity, negative = active” value was inactive: 7.08%. On to `Cc1nnc(N2CCCC(C(=O)Nc3cc(F)ccc3F)C2)c2nn(-c3ccccc3)c(C)c12` (centres undefined), for which the “activity, negative = active” value is inactive: -19%. On to `CN1c2ccccc2C(C)(C)[C@]12C=Cc1cc(O)ccc1O2`, for which the “activity, negative = active” value was inactive: -10.6%.

Consider `Cc1c(C(=O)N2CCN(c3ccc(F)cc3)CC2)sc2nc3n(c(=O)c12)CCC3`, for which the “activity, negative = active” value is inactive: -0.517%. For the molecule `O=C(C[C@H]1C/C=C\CC[C@H](Cc2ccc(F)cc2)C(=O)O[C@@H](c2ccccc2)CNC1=O)N[C@H](CO)Cc1ccccc1`, the “activity, negative = active” value is inactive: 5.07%.

Take `Cc1oc2c(cc(NS(=O)(=O)c3ccc(C(C)C)cc3)c3ccccc32)c1C(=O)O`: the “activity, negative = active” value is inactive: 2.06%.

Regarding `C=CC[C@@H](CC(=O)N[C@H](CO)Cc1ccccc1)C(=O)N[C@@H](COC(=O)[C@H](CC=C)CC(=O)OC(C)(C)C)Cc1ccccc1`, the “activity, negative = active” value is inactive: 3.05%.

On to `O=C(c1ccccc1)c1ccccc1C(=O)c1ccccc1`, for which the “activity, negative = active” value was inactive: 9.74%.

Regarding `COC(=O)Cc1c(O)ccn(CCc2c[nH]c3ccc(OC)cc23)c1=O`, the “activity, negative = active” value was inactive: 23.9%. In the case of `Cc1nc2nc(C)c(NS(=O)(=O)c3ccc(CC(C)C)cc3)c(=O)n2[nH]1`, the “activity, negative = active” value is inactive: 1.52%. On to `Cc1ccc(NC(=O)CSc2nc3ccccc3nc2N2CCOCC2)cc1`, for which the “activity, negative = active” value is inactive: -7.54%. As to `CCN1/C(=C/c2ccc3ccccc3[n+]2CC)C=Cc2ccccc21`, the Potency is active: 12.6 µM. Consider `COc1ccccc1-n1c(-c2ccccc2)c[n+]2c1CCc1ccccc1-2`, for which the “activity, negative = active” value was inactive: 2.01%. Consider `COc1cccc(C2CC(c3ccccc3)=NN2S(=O)(=O)c2ccc(C)cc2)c1OC` (centres undefined), for which the Potency was active: 25.1 µM. Turning to `CC(C)(C)C(=O)Nc1ccc(N=Nc2ccccc2)cc1`, the “activity, negative = active” value is inactive: -2.31%.

Regarding `O=C(N[C@H]1C/C=C\C[C@H](CC(=O)N(CCO)Cc2ccccc2)C(=O)NC[C@H](c2ccccc2)OC1=O)OCC1c2ccccc2-c2ccccc21`, the “activity, negative = active” value is inactive: 1.47%. Turning to `COc1ccc(N/C=C\C(=O)c2ccc(Br)cc2)cc1OC`, the Potency was active: 31.6 µM. Regarding `O[C@@H]1C[C@H](c2ccc(Cl)cc2)N(Cc2cccs2)C[C@H]1n1cc(C2CC2)nn1`, the “activity, negative = active” value is inactive: 1.61%. Consider `CCN1C(=O)[C@H]2[C@@H](c3ccc(SC4CCCCC4)c(OC)c3)N3CCCC[C@@]3(C(=O)OC)[C@H]2C1=O`, for which the “activity, negative = active” value is inactive: -0.118%. Consider `Cc1cc(/C=C2/SC(=O)NC2=O)c(C)n1-c1ccc(N2CCOCC2)cc1`, for which the “activity, negative = active” value is inactive: -2.11%. With `Cc1ccc2c(c1)N(C)/C(=C/c1cccc[n+]1C)S2`, the Potency is active: 11.2 µM. Still for that read-out and setting: in the case of `COc1ccc(NC(=O)CSc2nc3c(oc4ccccc43)c(=O)n2Cc2ccco2)cc1Cl` it was active: 8.91 µM. For `Cc1ccc(N=C2NC(=O)/C(=C\c3cccs3)S2)cc1C`, the “activity, negative = active” value was inactive: -14.1%. Same read-out and setting: in the case of `CCc1ccc(NC(=O)CSc2ccc(-c3ccccn3)nn2)cc1` it was inactive: -2.74%. `CC(=O)Oc1c(-c2ccc(Br)o2)oc2ccccc2c1=O`: the Potency is active: 12.6 µM. Turning to `CCOC(=O)c1c(-c2ccc(OC)cc2)csc1/N=C/C1C(=O)CCCC1=O`, the Potency is active: 25.1 µM. On to `C=CCN1C(=O)c2cccc3c(N4CCCCC4)ccc(c23)C1=O`, for which the Potency is active: 7.08 µM. For `CCCCCC(=O)N1C[C@@H](n2cc(COC(=O)c3ccccc3)nn2)[C@H](O)C[C@@H]1c1ccc(Cl)cc1`, the “activity, negative = active” value is inactive: -1.44%.
